Screen size: about 48,000 compounds; about 120 (0.25%) were called active. Inconclusive results (about 4%) are left out. Calls come from the whole dose curve; as a rule, active = well fitted activation curve with a large enough effect; inconclusive = small, poorly fitted or top-dose-only effect, or another doubt; inactive = no such curve, though single readings can be large or run the other way. The list shows a part of the results.
Assay: Primary qHTS for Identification of Small Molecule Activators of Huntingtin-Antisense Promoter Activity; note: nearly all actives have a fitted effect of over 55% in size
Settings: HEK293 HTT-AS promoter firefly luciferase reporter, 24 h; series mostly up to 57.5 µM; activity change, positive = activation: at the top concentration
Outline: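 Firefly luciferase readout (Dual-Glo, 10 min RT) after 24 h, 37 °C compound exposure (final up to 57.5 uM) of HEK293 reporter cells cultured 24 h beforehand; PTC124 at 50 uM final as control inhibitor; activity scaled vehicle 0%, zero RLU -100%.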

Activity change, positive = activation, inactive:
CCc1ccc(NC(=O)C2CCN(c3nn4cc(-c5ccc(OC)cc5)nc4s3)CC2)cc1 2.45%
c1ccc(-c2nc[nH]c2-c2ccccc2)cc1 -11.1%
Cc1ccc(N2C(=O)CC(c3ccccc3F)C3=C2COC3=O)cc1Cl (stereo not given) -22.1%
CCCCCCCC(=O)OCC(O)CO (stereo not given) -15.3%
CCN(CC)C(=O)Cn1c(=O)n(-c2ccc(Cl)c(Cl)c2)c(=O)c2c(C)c(C(=O)N(CC)CC)sc21 -6.75%
CCc1nnc2c(N3CCN(c4cccc(C)c4)C(C)C3)nc3ccccc3n12 (stereo not given) -16.7%
CC(C)c1ccc(C2Sc3ccccc3NC3=C2C(=O)c2ccccc23)cc1 (stereo not given) -79.8%
COc1ccc(Nc2oc(-c3ccc(COc4cccc(C)c4)o3)nc2C#N)cc1 -21.9%
COC(=O)c1cc(NC(=O)CCc2c(C)nc3c(c(C)nn3C(C)(C)C)c2C)cc(C(=O)OC)c1 -0.677%
COc1ccc(CCNC(=O)Cc2c(C)c3cc4c(C(C)(C)C)coc4c(C)c3oc2=O)cc1OC 4.11%
Cc1cc(C)c2c(c1)NC(=O)C2(O)c1c[nH]c2ccccc12 (stereo not given) -10.1%
Cc1ccc2c(c1)cc1c(=O)n(Cc3cccc(Cl)c3)nc(C)n12 1.52%
O=C(Nc1cc(Cl)ccc1Cl)c1cc(S(=O)(=O)NCCc2ccccc2)ccc1F -20%
Cc1nc(N2CCOCC2)c2c(C(=O)N3CCN(c4ccccc4F)CC3)c(C)oc2n1 -6.14%
Cc1ccc(CN2COc3ccc4c(C)cc(=O)oc4c3C2)cc1 -6.59%
Cc1ccc(C(=O)N(Cc2ccco2)Cc2sccc2C)cc1 -17.8%
CC1CCc2onc(C(=O)N3CCN(c4ccccc4)CC3)c2C1 (stereo not given) 7.74%
O=C(COc1ccccc1F)Nc1ccccc1C(=O)OCc1cc(=O)n2nc(C3CC3)sc2n1 11%
O=C(NCc1ccc(Cl)cc1)c1cc2c(s1)-c1ccccc1SC2 -3.18%
CCCN1CCN(CCCNC(=O)c2ccc3c(c2)sc2nc(-c4ccc(OC)cc4)cn23)CC1 5.93%
CCS(=O)(=O)c1ccc(OC)c(C(=O)OC)c1 0.298%
CC1=C(C(=O)NCc2ccccc2Cl)C2(CCCCCC2)OC1=O -20.2%
O=C(O)c1ccc2cc(-c3ccc(O)c(C45CC6CC(CC(C6)C4)C5)c3)ccc2c1 -8.91%
Cc1ccc2c(CNCC(C)c3ccccc3)c(C(=O)O)n(Cc3ccccc3C)c2c1 (stereo not given) -11.2%
Cc1ccccc1Cn1c(CN2CCC(C(=O)NCc3cccnc3)CC2)cc2ccccc21 -13.3%
CCOC(=O)C1CCN(C(=O)Cn2nc(C)n3c(cc4sccc43)c2=O)CC1 -11.9%
O=C(NC[C@H](O)CO)c1ccncc1Nc1ccc(I)cc1F -16.2%
Cn1c(SCC(=O)N2CCOCC2)ncc(C(=O)Nc2ccccc2)c1=O -2.7%
CCc1ccc(NC(=O)CCn2c(-c3ccc(OC)cc3)cc(C(C)=O)c2C)cc1 -34%
COc1ccc(NC(=O)c2ccc3c(c2)N(Cc2cccc(Cl)c2)C(=O)c2ccccc2S3=O)cc1Cl (stereo not given) -19.5%
CC1CCN(c2nc3c(S(=O)(=O)c4ccccc4)nnn3c3ccc(Cl)cc23)CC1 2.84%
COc1cccc(Cc2nc3ccccc3nc2SCC(=O)NCCc2ccccc2)c1 -37.3%
COc1ccc(C2C=C(c3ccc(F)cc3)Nc3nc(-c4ccc(Cl)cc4)nn32)cc1 (stereo not given) -93.8%
Cc1c(C)n(Cc2ccccc2)c2ccc(C(=O)NCc3ccccc3F)cc12 -17.3%
O=C(c1cnn(-c2cccc(F)c2)c1-n1cccc1)N1CCN(c2ccccc2F)CC1 -25.5%
COc1ccccc1NC(=O)NCCCN1CCN(c2ccc(F)cc2)CC1 -8.74%
COc1ccc(-n2nc3c(N4CCC(C(=O)NCc5cccc(F)c5)CC4)nnc(C)c3c2C)cc1 -33.6%
COc1ccc(CCNC(=O)c2ccc3c(c2)sc2nc(-c4ccccc4)cn23)cc1OC 31%
CCOC(=O)c1cc(-c2ccc(OC)cc2)n(CCC(=O)NCCc2ccccc2)c1C -6.98%
Cc1ccccc1N(C)S(=O)(=O)c1nnc(NC(=O)c2ccco2)s1 -19.3%
Cc1ccc(NC(=O)C2(C)Cc3ccccc3C(=O)O2)c(C)c1 (stereo not given) -5.97%
Cc1cc(OCC(=O)NCCc2nc3ccccc3[nH]2)cc(C)c1Cl -11.1%
CCn1nc(C)c(CCN(C)C(=O)Nc2cccc(Cl)c2C)c1C -2.26%
Cc1cccc(C(=O)N2CCc3cc(CNC(=O)c4cc5ccccc5[nH]4)ccc32)c1 -4.18%
Cc1ccc(CNC(=O)C(C)n2c(=O)cc(C(F)(F)F)c3c(C)nn(C)c32)cc1 (stereo not given) -27.5%
Cc1ccc(S(=O)(=O)C(CNC(=O)c2c(F)cccc2F)c2ccco2)cc1 (stereo not given) -3.67%
Cc1cc(C)c(S(=O)(=O)NCCS(=O)(=O)N2CCN(c3ccccc3)CC2)c(C)c1 -8.45%
O=S(=O)(c1ccccc1)c1nc(-c2ccccc2Cl)oc1N1CCCCCC1 -22.3%
COc1cccc(Nc2nc3cc(C)ccc3nc2NS(=O)(=O)c2ccc(Cl)cc2)c1 -60.3%
COC(=O)c1ccccc1NC(=O)Cn1cnc2sc(C)c(S(=O)(=O)N3CCC(C)CC3)c2c1=O 0.528%
Cc1nc2ccccn2c(=O)c1NC(=O)c1cccc(F)c1 -2.02%
COc1ccc(NC(=O)/C=C\C(=O)N(c2ccc(C(C)C)cc2)C(C(=O)NCc2ccco2)c2ccc(C)cc2)cc1 (stereo not given) -45.4%
COc1ccc(Cl)cc1-n1cc(-c2ccccc2)nc1SCC(=O)Nc1ccc(C)cc1 -21.7%
O=C(NC1CCCC1)c1ccc2c(=O)n(Cc3ccccc3)c(SCc3ccccc3F)nc2c1 -13.7%
COc1ccccc1CNC(=O)C1CCN(c2nc3ccc(C)cc3[nH]2)CC1 -6.94%
CCc1ccc(CNC(=O)CCCn2ccc3cc(S(=O)(=O)N4CCCC4)ccc32)cc1 -27.3%
CCOc1ccc(CCNC(=O)c2cc3c(-c4ccccc4F)nn(C)c3s2)cc1 -15.9%
COc1ccc(-c2cc(-c3ccc(C)cc3)nc3c2COc2ccccc2-3)cc1 -4.3%
CCC(Cn1nnc2ccccc2c1=O)NC(=O)Nc1ccccc1OC (stereo not given) -7.27%
Cc1ccc(S(=O)(=O)c2nc(-c3ccc(F)cc3)oc2SCC(=O)NC2CCCCC2)cc1 -18%
C[C@]12CCC(=O)C=C1CC[C@@H]1[C@H]2[C@@H](O)C[C@@]2(C)[C@H]1CC[C@]2(O)C(=O)CO -12.5%
CCS(=O)(=O)N1CCc2cc(C(=O)NCc3ccccc3OC)ccc21 -17.8%
CCOc1ccc(CCNC(=O)C2CCCN(S(=O)(=O)N(C)c3ccc(F)cc3)C2)cc1 (stereo not given) -41.3%
COc1cccc(NC(=O)C2CCC(CNS(=O)(=O)c3ccc4c(c3)CCCC(=O)N4)CC2)c1 (stereo not given) -10.2%
CCn1cc(CNC(=O)c2cc(-c3ccc(C)cc3)nc3ccc(Br)cc23)c(C)n1 -5.93%
Cc1ccccc1-c1nc2scc(CCNC(=O)c3ccco3)n2n1 -25.9%
COc1ccc(NC(=O)CN2C(=O)COc3ccc(S(=O)(=O)N4CCOCC4)cc32)cc1 6.47%
O=C(NCc1ccccc1)C(=O)Nc1c2c(nn1-c1ccc(F)cc1)CSC2 -17.4%
COc1cccc(NC(=O)C2CCN(c3ccc(Sc4ccc(C)cc4)nn3)CC2)c1 -24.5%
Clc1ccccc1OCCSc1nnc(-c2cccs2)o1 5.25%
O=C(CSc1nc(=O)n(Cc2ccco2)c2c1CCC2)NCc1ccccc1 -7.46%
CCc1ccc2oc(-c3ccc(C)c(NC(=O)/C=C/c4ccco4)c3)nc2c1 0.939%
Cc1sc2ncn(CC(=O)N3CCN(c4ccccc4F)CC3)c(=O)c2c1S(=O)(=O)N1CCC(C)CC1 -0.481%
Cc1cccc(OCCSc2nnc(-c3cccs3)o2)c1 -5.85% [at 11.5 µM, percent change from vehicle, -100% = no light]
CCOC(=O)c1ccc(NC(=O)c2cnn3c(=O)c4c(n(CC)c23)CCN(Cc2ccc(OC)cc2)C4)cc1 -12.6%
Cc1cn2c(=O)cc(COC(=O)c3ccc(NC(=O)c4ccc(F)cc4)cc3)nc2s1 -29%
CC1CCN(S(=O)(=O)N2CCC(C(=O)NCc3ccccc3Cl)CC2)CC1 -31.2%
COC(=O)c1ccc(Nc2ncnc3c2cnn3C)cc1 2.24%
COc1ccc(C2c3[nH]c4ccccc4c3CCN2C(=O)CCC2CCCC2)cc1 (stereo not given) -33.1%
COc1ccc(CNC(=O)Cc2c(C)c3cc4c(C)coc4cc3oc2=O)cc1OC -5.92%
CC(Sc1nccn1C)C(=O)Nc1ccccc1C#N (stereo not given) 5.58%
CCN(CC)c1ccc(NC(=O)c2cc(C)nc3c2c(C)nn3-c2ccc(C)cc2)c(C)c1 -22.4%
COc1ccc(-c2nc3scc(CCNS(=O)(=O)c4ccc(Oc5ccccc5)cc4)n3n2)cc1OC -24.4%
Cc1ccsc1CCN1C(=O)N(c2ccccc2)C(=O)C1CC(=O)Nc1ccc(Cl)cc1 (stereo not given) -26.1%
CCN(CC)C(=O)c1sc2c(c1C)c(=O)n(-c1ccc(C)c(C)c1)c(=O)n2Cc1cc(=O)n2ccccc2n1 -17.5%
OCCn1cc(-c2cnc3nnn(Cc4ccc5ncccc5c4)c3n2)cn1 4.92%
Cc1ccc2sc(N(Cc3cccnc3)C(=O)CCS(=O)(=O)c3ccccc3)nc2c1C -17.7%
COc1ccc(N2CCN(C(=O)CSc3nc(-c4ccc(C(C)C)cc4)no3)CC2)cc1 -54.8%
O=C(CNC(=O)c1ccccc1)OCc1cc(=O)n2nc(C3CCCCC3)sc2n1 3.89%
CCN(CC)C(=O)c1sc2c(c1C)c(=O)n(Cc1ccccc1)c(=O)n2Cc1ccccc1C -33.6%
COc1ccc(CCNC(=O)c2ccc3c(c2)CCN3S(C)(=O)=O)cc1OC -15.2%
Cc1nc(-c2ccc(S(=O)(=O)Nc3cc(Cl)ccc3C)cc2)co1 -21.1%
COc1ccc(Cn2cc(S(=O)(=O)c3ccc(C)cc3)c(=O)c3cc(F)ccc32)cc1 0%
COc1ccc2c(c1)c(=O)c(C(=O)c1ccccc1)cn2CC(=O)Nc1ccc2c(c1)OCO2 -28.1%
CCOc1ccc(NC(=O)c2oc3ccccc3c2NC(=O)COc2cccc(OC)c2)cc1 7.17%

Source: PubChem BioAssay AID1508624 (National Center for Advancing Translational Sciences (NCATS), 2021)
